From PubChem BioAssay AID493208 (National Center for Advancing Translational Sciences (NCATS), 2011)
The campaign covered roughly 44,000 compounds. About 340 (0.77%) were called active. Not shown: some 5% with an inconclusive outcome. The call rests on the fitted dose curve; in most records, active means well fitted inhibition curve with a large enough effect; inconclusive means small, poorly fitted or top-dose-only effect; inactive means flat fitted curve, though single readings scatter. The list shows a part of the results.

Assay: Acumen qHTS Assay for Inhibitors of the mTORC1 Signaling Pathway in MEF (Tsc2-/-, p53-/-) Cells: Sytravon;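 further: plate controls were DMSO for no effect and rapamycin for full effect; nearly all actives have a fitted effect of over 50% in size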
Details: phospho-rpS6 immunofluorescence/PI, 24 h; series mostly up to 38.3 µM; activity change, negative = inhibition: at the top concentration
Outline: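 Readout is phospho-S6 Alexa 488 signal normalized to PI per well, reported as % active cells with thresholds set from rapamycin (7.5 nM) and DMSO controls. Cells: Tsc2-/-, p53-/- MEFs, 24 hrs compound at 37 C; PI cell number serves as viability.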

| SMILES | activity change, negative = inhibition |
| --- | --- |
| CCOC(=O)c1scc(-c2ccccc2)c1S(=O)(=O)Nc1cc(OC)cc(OC)c1 | inactive: -10.7% |
| O=C(Cn1cc(SCc2c(F)cccc2Cl)c2ccccc21)N1CCCCCC1 | inactive: -16.4% |
| COc1ccc(-n2nc(C(=O)N(C)c3cc(C)ccc3C)c3c4ccccc4n(C)c3c2=O)cc1Cl | inactive: 0.716% |
| Cc1ccc(C)c(NC(=O)c2cnn(-c3cccc(F)c3)c2C2CCN(C(=O)OC(C)(C)C)CC2)c1 | inactive: -10.3% |
| CCOc1ccc(NS(=O)(=O)c2ccc(-c3cc(C)no3)s2)cc1 | inactive: 1.3% |
| Cc1c(Cl)cccc1NC(=O)c1cnc2sc(N3CCOCC3)nn2c1=O | inactive: 1.92% |
| CCN(c1ccccc1)S(=O)(=O)c1ccc(NC(=O)c2cc(=O)c3cc(C)cc(C)c3o2)cc1 | inactive: 3.88% |
| CCC(=O)N1c2ccccc2CC1C(=O)NCCc1ccccc1C (stereo not given) | inactive: 7.35% |
| Cc1ccc(S(=O)(=O)Nc2ccc3c(c2)CCCN3C(=O)c2cccs2)cc1 | inactive: -0.458% |
| Cc1cc2ccccc2n1CCNC(=O)c1cccc(Br)c1 | inactive: -13.7% |
| O=C(CSc1cn(CC(=O)N2CCOCC2)c2ccccc12)Nc1ccccc1F | inactive: -1.07% |
| COc1ccc2oc(=O)cc(CN3CCN(Cc4ccccc4)CC3)c2c1 | inactive: -6.13% |
| COc1ccc(OC)c(CCNC(=O)CCCn2c(=O)c3cccn3c3ccccc32)c1 | inactive: 3.41% |
| O=C(c1ccc2c(c1)N(Cc1ccc(Cl)cc1)C(=O)c1ccccc1S2=O)N1CCOCC1 (stereo not given) | inactive: 0.226% |
| Cc1cc(C)c2c(CC(=O)N3CCN(c4cccc(Cl)c4)CC3)coc2c1 | inactive: 5.52% |
| CCc1cccc(NC(=O)Cn2c(=O)ccc3cc(S(=O)(=O)N4CCC(C)CC4)ccc32)c1 | inactive: -10.9% |
| CCOc1ccccc1N1CC(c2nc3ccccc3n2CCOc2ccccc2)CC1=O (stereo not given) | inactive: -0.484% |
| CCc1ccc(CNc2ncnc3c2nc2n3CCCC2)cc1 | inactive: 4.71% |
| COc1cccc(N2CCN(C(=O)c3ccc(Cn4c(=O)[nH]c5cc(OC)c(OC)cc5c4=O)cc3)CC2)c1 | inactive: -1.74% |
| CC1CCc2nc3ncn(Cc4ccccc4C#N)c(=O)c3cc2C1 (stereo not given) | inactive: -0.874% |
| COc1ccc(C(CNC(=O)c2oc3ccc(Cl)cc3c2C)N2CCCCC2)cc1 (stereo not given) | inactive: -3.38% |
| CCCC(=O)N(c1ccc2oc3c(c2c1)CCCC3)S(=O)(=O)c1cc(C)ccc1C | inactive: -28.7% |
| O=C1CC(c2nc3ccccc3[nH]2)CN1c1cccc(Cl)c1 (stereo not given) | inactive: 1.22% |
| COC(=O)c1ccc(CSc2nc3c([nH]c4ccccc43)c(=O)n2-c2ccc(Cl)cc2)o1 | inactive: -4.71% |

| SMILES | activity change, negative = inhibition |
| --- | --- |
| CCCCNc1nc2c(c(=O)n(Cc3ccc(Cl)cc3)c(=O)n2C)n1C | inactive: 1.7% |
| Nc1nnc2c(n1)[nH]c1ccccc12 | inactive: 2.2% |
| COc1cccc(CSc2nc3cc(C(=O)NC4CCCC4)ccc3c(=O)n2Cc2ccccc2)c1 | inactive: -7.85% |
| O=C(CSc1nc2ccccc2n1Cc1ccccc1)N1CCN(c2ccc(F)cc2)CC1 | inactive: 0.435% |
| COc1ccc(-n2cc(C(=O)NCc3ccccc3)c3ccccc3c2=O)cc1 | inactive: 5.45% |
| Cc1cc(Cl)ccc1NC(=O)c1cc(S(=O)(=O)N2CCOCC2)cn1C | inactive: -0.0914% |
| COc1ccc(CNC(=O)c2ccc(CS(=O)(=O)c3ccccc3OC)o2)cc1 | inactive: -2.71% |
| O=C(NCCc1nc2ccccc2n1Cc1ccc(F)cc1)c1ccco1 | inactive: -2.81% |
| Cc1ccc(-c2nc(CCNC(=O)C(=O)Nc3ccc(C)cc3C)cs2)cc1 | inactive: -7.12% |
| Cc1ccc(C)c(-c2[nH]c3c(c2-c2c(-n4cccc4)n(C)c(=O)[nH]c2=O)c(=O)[nH]c(=O)n3C)c1 | inactive: 2.63% |
| CCN(CC)S(=O)(=O)c1ccc2c(c1)N(CC(=O)N1CCN(c3ccc(F)cc3)CC1)C(=O)CO2 | inactive: -8.79% |
| CCOc1ccc(CCNC(=O)Cn2nc(-c3ccc(C)cc3)ccc2=O)cc1OCC | inactive: 9.71% |
| CCc1ccccc1NC(=O)C1=C(C)C(=O)OC12CCCCCC2 | inactive: 0.0094% |
| COc1cc(CN2CCN(S(=O)(=O)c3ccccc3)CC2)cc(OC)c1O | inactive: -2.16% |
| O=C(CNS(=O)(=O)c1cccs1)N1CCN(c2cccc(C(F)(F)F)c2)CC1 | inactive: -1.27% |
| Cc1cccc(NC(=O)C(=O)NCC(c2ccc3c(c2)OCO3)N2CCN(C)CC2)c1C (stereo not given) | inactive: 0.236% |
| COc1ccc(OC)c(NC(=O)c2cccn2-c2nnc(N3CCCCC3)s2)c1 | inactive: -1.23% |
| COc1ccc(CNC(=O)c2cc3c(=O)oc4ccc(C)cc4c3s2)c(OC)c1 | inactive: -0.748% |
| COc1cc(NC(=O)CSc2ncc(S(=O)(=O)c3ccc(Br)cc3)c(=O)[nH]2)cc(OC)c1 | inactive: -10.3% |
| Cc1c2cnn(CC(=O)NCCc3ccccc3)c(=O)c2c(C)n1Cc1ccccc1 | inactive: -1.07% |
| Fc1ccc(-c2noc3ncnc(NC4CCCCC4)c23)cc1 | inactive: -1.79% |
| CCCCOc1cccc(C(=O)N(Cc2sccc2C)C2CCS(=O)(=O)C2)c1 (stereo not given) | inactive: -3.82% |
| CCN(CC)S(=O)(=O)c1ccc2oc(C(=O)N(C)Cc3ccccc3)c(C)c2c1 | inactive: 2.93% |
| COc1ccc(Cn2c(=O)c3oc4ccccc4c3n(Cc3ccc(F)cc3)c2=O)cc1 | inactive: -0.781% |

| SMILES | activity change, negative = inhibition |
| --- | --- |
| Cc1cccc(N2CCN(C(=O)CCCCn3c(=O)[nH]c4ccsc4c3=O)CC2)c1C | inactive: 1.22% |
| Cc1cc(Nc2cccc(Cl)c2)nc2ccc(NC(=O)Cc3cccc(C(F)(F)F)c3)cc12 | inactive: 0.0791% |
| COc1ccc(CNC(=O)c2ccc(NC(=O)N3CCCCc4ccccc43)cc2)cc1 | inactive: 1.6% |
| O=C(NCCCc1ccccc1)C1CCN(C(=O)N2CCOc3ccc(Cl)cc32)CC1 | inactive: -24.9% |
| Cn1ccc2c(OCC(=O)Nc3cc(C(F)(F)F)ccc3Cl)cccc2c1=O | inactive: -4.91% |
| CCOc1ccccc1NC(=O)CCn1nc(C)c(S(=O)(=O)N2CCCCC2)c1C | inactive: 0% |
| COc1ccc(C2C=C(c3ccccc3)Nc3nc(NC(=O)/C=C/c4ccccc4)nn32)cc1 (stereo not given) | inactive: 1.72% |
| CCN(CC)S(=O)(=O)c1ccc2c(c1)c(=O)c(C(=O)N1CCN(c3ccc(F)cc3)CC1)cn2C | inactive: -13.8% |
| CCc1ccc(NC(=O)CSC2=Nc3ccccc3C3=NC(CC(=O)NCc4ccccc4)C(=O)N23)cc1 (stereo not given) | inactive: 0.595% |
| O=C(Cn1ncc2c3ccccc3n(Cc3cccc(Cl)c3)c2c1=O)NC1CCCCCC1 | inactive: -1.48% |
| CC(=O)N1CCc2cc(S(=O)(=O)CCC(=O)NCc3ccc(Cl)cc3)ccc21 | inactive: -0.55% |
| COC(=O)CCN(c1ccccc1)S(=O)(=O)c1cc(-c2cc(C)no2)ccc1OC | inactive: 4.81% |
| CCN1CCSc2ccc(C(=O)NCc3ccc(OC)cc3)cc21 | inactive: 1.49% |
| CCc1ccc(-c2nc(CS(=O)CC(=O)NCCc3ccc(Cl)cc3)c(C)o2)cc1 (stereo not given) | inactive: -7.11% |
| O=C1CCSC2(C(=O)N(Cc3ccc(F)cc3)c3ccccc32)N1c1ccc(F)c(F)c1 (stereo not given) | inactive: -25.7% |
| CCNC(=O)CC1C(=O)N(c2cccc(OC)c2)C(=O)N1Cc1ccc(OC)c(OC)c1 (stereo not given) | inactive: -3.29% |
| CCOc1ccc2oc(=O)cc(CN3CCN(C(=O)c4ccc(F)cc4)CC3)c2c1 | inactive: 3.78% |
| CS(=O)(=O)N1CCC(N2CCN(Cc3ccccc3)C(=O)C2=O)CC1 | inactive: 8.32% |
| COc1cccc(NC(=O)Cn2c(=O)n(-c3ccc(C)cc3)c(=O)c3ccc(C(=O)NCc4ccco4)cc32)c1 | inactive: -6.43% |
| Cc1c(C(=O)Nc2cccc(Cl)c2)oc2ccc(S(=O)(=O)N(C)C3CCCCC3)cc12 | inactive: 7.35% |
| CCOc1ccccc1N(CC(=O)N1CCc2ccccc2C1)S(=O)(=O)c1ccccc1 | inactive: 23.2% |
| Cc1nc2ncnn2c(C)c1CCC(=O)NCc1ccccc1Cl | inactive: 2.8% |
| COc1cc(C)c(C)cc1S(=O)(=O)Nc1cccc(-c2ccc(N3CCOCC3)nn2)c1 | inactive: -2.59% |
| CCc1cccc(NC(=O)C(c2ccccc2)N2Cc3ccccc3C2=O)c1 (stereo not given) | inactive: 0.781% |

| SMILES | activity change, negative = inhibition |
| --- | --- |
| COCCn1c(=N)c(C(=O)NC(C)c2ccccc2)cc2c(=O)n3cc(C)ccc3nc21 (stereo not given) | inactive: -16.9% |
| COc1ccc(CCNC(=O)C(=O)NCC(c2ccco2)S(=O)(=O)c2ccc(F)cc2)cc1 (stereo not given) | inactive: -15.7% |
| COC(=O)c1cc2oc3ccccc3c2n1Cc1nc(-c2ccccc2C)oc1C | inactive: 0.177% |
| O=C(CSCc1cc(=O)c2cc(F)ccc2[nH]1)Nc1ccccc1Cl | inactive: 3.28% |
| Cc1cccc(N2CCN(S(=O)(=O)c3cc(C(=O)Nc4ccccc4Cl)ccc3F)CC2)c1C | inactive: 10.6% |
| CCc1ccccc1NC(=O)CSc1nnc2ccc3ccccc3n12 | inactive: -1.02% |
| CCC(C)NC(=O)CCc1c(C)nc2nc(-c3cc(OC)cc(OC)c3)nn2c1C (stereo not given) | inactive: 7.09% |
| Cc1ccc(NC(=O)[C@@H](c2ccccc2)N2Cc3ccccc3C2=O)cc1 | inactive: -2.06% |
| COc1ccc(OC)c(CCNc2nc3ccccc3c3nc(-c4cccnc4)nn23)c1 | inactive: -1.45% |
| Brc1ccc(-n2nc(-c3ccccc3)c3cnc4cc5c(cc4c32)OCO5)cc1 | inactive: -1.73% |
| Cc1ccc2[nH]c(CSc3nnc(NC(=O)c4ccc(Cl)cc4)s3)cc(=O)c2c1 | inactive: -10.2% |
| Cc1cc(S(=O)(=O)C(CNC(=O)COc2ccc(Cl)cc2)c2cccs2)ccc1F (stereo not given) | inactive: 4.01% |
| CCCN(CCC)C(=O)c1c2c(nc3ccccc13)C(=O)N(C1CCCCC1)C2 | inactive: -2.61% |
| Cc1ccc(CCNC(=O)C2CCN(Cc3nc(-c4ccccc4C)oc3C)CC2)cc1 | inactive: 3.63% |
| CCc1ccc(OCC2c3cc(OC)c(OC)cc3CCN2C(=O)COc2ccccc2)cc1 (stereo not given) | inactive: 6.44% |
| CCCN(C(=O)c1coc(=O)c2ccccc12)c1ccccc1C | inactive: 9.39% |
| Cc1ccc(N2C(=O)CSC23C(=O)N(CC(=O)Nc2ccc(C(C)C)cc2)c2ccccc23)cc1C (stereo not given) | inactive: 2.99% |
| COc1cccc(NC(=O)C(Cc2ccccc2)NS(=O)(=O)c2ccc3c(c2)oc(=O)n3C)c1 (stereo not given) | inactive: -0.831% |
| Cc1coc2cc3oc(=O)c(CC(=O)NCCc4ccccc4)c(C)c3cc12 | inactive: 5.48% |
| COc1ccc(-n2nc(C(=O)Nc3cccc(C)n3)c3c4ccccc4n(C)c3c2=O)cc1Cl | inactive: 6.17% |
| CCOc1ccc(CCNC(=O)CCc2cn(Cc3ccc(F)cc3)c3ccccc23)cc1 | inactive: -4.38% |
| O=C(Nc1cccnc1Cl)c1cc(-c2cccc(Cl)c2)on1 | inactive: -8.43% |
| CCOc1ccc(CCNC(=O)c2cc3c(-c4ccc(OC)c(OC)c4)nn(C)c3s2)cc1OCC | inactive: -5.75% |
